Results reported in the supplement of paper PMC3334620.
Whole data set: some 33,000 sequences, median “E-score (-0.5 to 0.5)” near -0.054, cut for the highest 2% near 0.39. Some of the results follow.

These sequences were tested against Ylr278c (UniProt Q05854) (assay: PBM E-score (8-mer binding enrichment) (E-score (-0.5 to 0.5)); higher = stronger / more preferred TF binding; most listed sequences are background and not binding sites). Settings: protein concentration: 200 nM; construct: GST-DNA-binding domain.
How it was run: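 Yeast transcription factors, full-length or as DNA-binding domains, were expressed with a GST tag using PURExpress in vitro transcription/translation. At about 100-200 nM they were applied to universal all-10-mer Agilent arrays, double-stranded by primer extension on fresh or once-stripped slides. Fluorescent anti-GST detected bound protein, and masliner normalised the scans. E-scores for ungapped eight-base words, pooled with reverse complements, came from the Universal PBM Analysis Suite.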

Sequence	PBM E-score
AAATGAGA	-0.187
ACACATTC	-0.0281
AAATAGGT	-0.221
GCGGACGA	0.319
ACCTGAAG	-0.0876
AGCGCGTA	-0.109
AGTAAACT	-0.099
ATCCCGAA	0.309
TAAATTGA	-0.138
AATGTTCT	-0.285
AGAGCATG	-0.29
TGCATACA	-0.078
CGGTACTA	0.219
GTAGTCTA	-0.227
CTACTAAG	0.0628
CAGGCTAA	-0.247
CGAAAACA	0.139
GTTACCTA	-0.229
AGATCCGA	0.344
CGAGAGCA	0.0376
ATTTCCGC	0.397
AATTTCCC	0.114
AGACCGGA	0.335
ATCCCCTA	-0.0766
AACCGGTC	0.198

Sequence	PBM E-score
CTTGAAAA	-0.0913
CGCGCCCG	0.269
ACGCTCAA	-0.0956
AGCACAAG	-0.0575
CGCAAATC	0.133
AAGCCTGT	-0.105
CGACTGTC	-0.192
CGCCGCAC	0.222
CTGCCACA	-0.191
CTCTAAAC	-0.125
GCGAGCAA	0.0132
GGATGATA	0.00526
AACTCTAA	0.0999
CTGGCCAG	-0.218
CGTTGAAA	-0.0818
ACGAGATG	-0.13
ATGCGATG	-0.0186
GCGTAAAA	0.0422
GCTCTCTA	-0.266
TCACCAAA	-0.106
CTTTTAGC	-0.199
CATTAGCC	0.0103
AGCCGACC	0.0564
CCACTGAA	0.0461
CACCCACA	-0.116

Sequence	PBM E-score
CCACGGGA	0.0757
GATTATCC	0.212
AGGTACAC	-0.0394
TAGACCCA	-0.168
AGGAAGGG	-0.226
CTCTAGCA	-0.23
AATCTTGG	-0.158
CGGCCGTA	0.225
ACTGTAGC	-0.231
AAAAAAAA	0.0783
CCGCCAGG	0.102
CAGTGAGC	-0.153
TCCTCCCA	0.0879
AGGGGTTG	-0.164
ATGGTACA	-0.169
TGCGACAA	-0.119
GAAGAAGC	0.117
ACCCGAAC	0.197
CGCCCCCA	-0.186
GCTACTAA	-0.0294
ATAGCATA	-0.122
GCCGGGGA	0.338
GGAGCCAA	0.0617
AACGCGGA	0.397
ATTAGGGG	-0.0907

Sequence	PBM E-score
AAGCCACT	-0.228
ACCCCTCC	-0.101
ACGAGACT	-0.187
CTAGCAAA	-0.00039
AAGGAGAT	0.0883
ACCCTACA	-0.192
CCGCAGGC	0.203
CATTCGAC	-0.0234
AAGCAGAA	-0.0239
AATTGGGC	-0.116
CCTAGTGC	-0.173
AGACAGTA	-0.228
AGGGGTAG	-0.0381
GATTTTCA	0.0485
GAAAGCTA	0.0324
AACGTCTG	-0.123
AATATCAT	-0.105
ACTCAACT	0.0546
TCCACAAA	0.07
AATCCTAA	-0.0809
ACGATTTA	0.0466
GGAATCCA	0.139
GGTAACGA	-0.057
ACGTATGA	-0.145
CTACGGCC	0.123

Sequence	PBM E-score
CGTTCCCC	0.0912
TGAATGCA	-0.132
CGGGGCAC	0.173
CCGGAATC	0.435
AGTTCTCA	-0.0197
TATACCAA	-0.101
CGGCGAAG	0.287
GTATTGAA	0.0438
AAAAAATA	0.0872
TCTGGCAA	-0.0644
GCTATCAA	-0.0652
AGGTTATG	-0.0223
CGCGCGTA	0.203
AACAAATC	0.00828
GTCTACCA	-0.199
TGTCTCAA	-0.192
AGCTCGAT	-0.0573
GATCTGGA	-0.149
GAAGCTAA	-0.0877
GCTACTCC	0.289
CTGTAAAA	-0.0499
ACAGTATA	-0.181
GGCATCTA	-0.0448
GGACGTCA	0.0459
ATTCTTAG	-0.27

Sequence	PBM E-score
ACAAACTA	-0.0626
ACACCCTG	-0.211
AATTCTCG	-0.052
CCCCCGTC	0.0647
GGCATGAA	0.0634
AGAACGCC	0.128
AATGTAAT	0.113
CCGCGTCC	0.262
GATTAACC	0.00182
AATGCAAA	-0.0473
CGGTCCCA	0.131
CCGGCGAA	0.404
AATCCGGG	0.417
ACCCTGTC	-0.183
AGTAAGTA	-0.0768
CTCTCCCC	0.00292
CGTCACGA	-0.0839
CGGCTACA	-0.0425
GCTTTTCA	-0.0244
AGGCACTC	-0.195
AATAGATA	-0.126
GTCACGTA	-0.319
CTCGCGAG	0.00091
AATGTTGT	-0.0992
GGAGCCAC	0.0167

Sequence	PBM E-score
ACTATTAT	-0.0407
ACTGGTTC	-0.00699
CCGCTGCG	0.248
ATGGTCTC	-0.0475
ATCGAGCA	0.0192
CGCAGGCA	0.0235
ATACGTAA	-0.213
CCAACCAG	-0.17
CAAATGGG	-0.154
CACGCCGA	0.211
CCGACACG	0.246
ATGGGTGA	-0.0653
CTCTCTAC	-0.25
GGGCACCA	-0.0453
CGGTCGCA	-0.0242
GTTCCACA	-0.0269
CATCTAGA	-0.196
TGTTAACA	-0.151
ACTTTTAG	-0.0685
GCTAGGAC	0.021
TCCCTCAA	-0.106
ACGTGTCG	-0.149
GATTCGGA	0.363
ATGGTCGC	-0.0551
CATTGGCC	-0.204

Sequence	PBM E-score
GGATATAA	0.127
CCTACCCA	-0.214
ATACTCAG	0.00853
CCATGATA	-0.171
AGAGACCT	-0.344
ACATAAGC	-0.121
GTGCACCA	-0.119
GCCTCGGA	0.352
ACACACAT	-0.132
GACTCTCA	-0.0842
CAGTTGAG	-0.323
GCTGCGAA	-0.0819
CGACACAA	-0.181
ACACAGCC	-0.0638
GGTTCTTA	-0.0602
AGATCACT	0.0112
GGCCGGGA	0.325
CAGATAGC	-0.0897
TACGTCTA	-0.193
AGGTCGTC	-0.0309
AATCACAT	-0.0102
AAGTACTT	-0.025
CGGAAGGA	0.301
ACTGATAC	-0.128
ATTGACAC	-0.0918

Sequence	PBM E-score
AAATCTGC	-0.19
GCTCGCCC	-0.0753
ATGGTTCA	-0.0627
CTAGCATA	-0.0627
GATAACTA	-0.0391
AACCCGTA	-0.0038
CTGAGCGC	-0.145
AAGGAGTC	-0.127
CTTGATCC	-0.0306
AAATGGTA	0.0343
AAAATGCC	0.12
CCTTAGAA	-0.197
GTTCACAA	-0.0585
GCTGAGAC	-0.12
CGAGCTAA	0.0875
GCTAATGA	-0.196
AGGCCTAT	-0.201
GATGCAAA	-0.137
GATGCCGA	0.291
